This note sets out measurements from the supplement of paper PMC4604168 (melanoma cell lines).

This is one part of the list. Many values rest on one well or one pass, so single values are uncertain.
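Also: cells treated in 1,536-well plates, then fixed and DAPI-stained, with nuclei counted from automated high-throughput microscope images.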

The assay deals with A375. Briefly: cell count relative to DMSO control; melanoma cells; higher = more viable cells. The note with it: library dose: standard library concentration; 72 h.
`O=C(O)c1ccc(-c2c[nH]c3ncc(-c4ccccc4)cc23)cc1C1CCCC1` + CCc1ccc(CCOc2ccc(CC3SC(=O)NC3=O)cc2)nc1 [pioglitazone] (first compound 0.8 µM, partner dose 10 µM): the cell count was found to be 82.1%. Compound `Cn1cncc1[C@@](N)(c1ccc(Cl)cc1)c1ccc2c(c1)c(-c1cccc(Cl)c1)cc(=O)n2C` [tipifarnib] + Oc1cc(-c2nc(-c3ccccc3)[nH]c2-c2ccncc2)ccc1Cl [L779450] (first compound 0.05 µM, partner dose 1 µM) showed a cell count of 64%. In turn, `C[C@@H]1CCN(C(=O)CC#N)C[C@@H]1N(C)c1ncnc2[nH]ccc12` + O=c1cc(-c2cccc3c2Sc2ccccc2S3)oc(N2CCOCC2)c1 [KU55933] (first compound 5 µM, partner dose 5 µM) had a cell count of 101%. For `O=C(Nc1cccc(Cl)c1)Nc1ncc(CCNc2ncnc3ccsc23)s1` + CCN(CC)CCCCNc1ncc2cc(-c3cc(OC)cc(OC)c3)c(NC(=O)NC(C)(C)C)nc2n1 [PD173074] (first compound 0.004 µM, partner dose 0.5 µM) the value was 84.3%.

Turning to `O=c1[nH]nc(Sc2ncc([N+](=O)[O-])s2)n1-c1ccc2c(c1)OCCO2` + Cn1cc(/C=C2\C(=O)Nc3cccnc32)c2ccccc21 [GW441756] (first compound 1 µM, partner dose 2 µM), the cell count was 140%. Compound `CC1(C)NC(=O)N(c2ccc([N+](=O)[O-])c(C(F)(F)F)c2)C1=O` [nilutamide] + Oc1nc(-c2ccc(C(F)(F)F)cc2)nc2c1CSCC2 [XAV939] (first compound 5 µM, partner dose 10 µM) had a cell count of 94.6%. In turn, `CC1(C)NC(=O)N(c2ccc([N+](=O)[O-])c(C(F)(F)F)c2)C1=O` [nilutamide] + N#Cc1c(O)c2c(-c3ccc(-c4ccccc4O)cc3)csc2[nH]c1=O [A769662] (first compound 5 µM, partner dose 10 µM) gave a cell count of 105%. Consider `O=C(O)c1ccc(-c2c[nH]c3ncc(-c4ccccc4)cc23)cc1C1CCCC1` + COc1ccc(COc2ccc(Cc3cnc(N)nc3N)cc2OC)cc1 [GW2580] (first compound 0.8 µM, partner dose 5 µM), for which the cell count was found to be 87.7%. Then `O=C(Nc1cccc(Cl)c1)Nc1ncc(CCNc2ncnc3ccsc23)s1` + COc1cc(N2CCC(N3CCN(C)CC3)CC2)ccc1Nc1ncc(Cl)c(Nc2ccccc2S(=O)(=O)C(C)C)n1 [NVP-TAE684] (first compound 0.004 µM, partner dose 0.4 µM), with 78.9%; and `C[C@@H]1CCN(C(=O)CC#N)C[C@@H]1N(C)c1ncnc2[nH]ccc12` + COc1ccc(COc2ccc(Cc3cnc(N)nc3N)cc2OC)cc1 [GW2580] (first compound 5 µM, partner dose 5 µM), with 95.6%; and `COc1cc(Nc2ncc(F)c(Nc3ccc4c(n3)NC(=O)C(C)(C)O4)n2)cc(OC)c1OC` [Tamatinib] + COc1ccc(-c2ccc3c(N4CCOCC4)nc(N4C[C@@H](C)O[C@@H](C)C4)nc3n2)cc1CO [KU0063794] (first compound 2 µM, partner dose 0.1 µM), with 108%. For `COc1cc(Nc2ncc(F)c(Nc3ccc4c(n3)NC(=O)C(C)(C)O4)n2)cc(OC)c1OC` [Tamatinib] + COc1cc(N2CCC(N3CCN(C)CC3)CC2)ccc1Nc1ncc(Cl)c(Nc2ccccc2S(=O)(=O)C(C)C)n1 [NVP-TAE684] (first compound 2 µM, partner dose 0.4 µM), the cell count was determined as 69.7%. On to `C[C@@H]1CCN(C(=O)CC#N)C[C@@H]1N(C)c1ncnc2[nH]ccc12` + N#Cc1c(O)c2c(-c3ccc(-c4ccccc4O)cc3)csc2[nH]c1=O [A769662] (first compound 5 µM, partner dose 10 µM), for which the cell count stood at 120%. For `O=C(O)c1ccc(-c2c[nH]c3ncc(-c4ccccc4)cc23)cc1C1CCCC1` + Oc1nc(-c2ccc(C(F)(F)F)cc2)nc2c1CSCC2 [XAV939] (first compound 0.8 µM, partner dose 10 µM) the value was 87.3%.

Take `COc1cc(Nc2ncc(F)c(Nc3ccc4c(n3)NC(=O)C(C)(C)O4)n2)cc(OC)c1OC` [Tamatinib] + N#Cc1c(O)c2c(-c3ccc(-c4ccccc4O)cc3)csc2[nH]c1=O [A769662] (first compound 2 µM, partner dose 10 µM): the cell count came to 99.8%.

`Cn1cncc1[C@@](N)(c1ccc(Cl)cc1)c1ccc2c(c1)c(-c1cccc(Cl)c1)cc(=O)n2C` [tipifarnib] + COc1ccc(-c2ccc3c(N4CCOCC4)nc(N4C[C@@H](C)O[C@@H](C)C4)nc3n2)cc1CO [KU0063794] (first compound 0.05 µM, partner dose 0.1 µM) showed a cell count of 87.8%. `O=C(O)c1ccc(-c2c[nH]c3ncc(-c4ccccc4)cc23)cc1C1CCCC1` + Cc1cc([N+](=O)[O-])ccc1NS(=O)(=O)c1cc(Cl)ccc1Cl [FH535] (first compound 0.8 µM, partner dose 5 µM): the cell count was determined as 71.2%. As for `COc1cc(Nc2ncc(F)c(Nc3ccc4c(n3)NC(=O)C(C)(C)O4)n2)cc(OC)c1OC` [Tamatinib] + COc1ccc(COc2ccc(Cc3cnc(N)nc3N)cc2OC)cc1 [GW2580] (first compound 2 µM, partner dose 5 µM), the cell count was 102%. For `O=C(O)c1ccc(-c2c[nH]c3ncc(-c4ccccc4)cc23)cc1C1CCCC1` + Cn1cc(/C=C2\C(=O)Nc3cccnc32)c2ccccc21 [GW441756] (first compound 0.8 µM, partner dose 2 µM), the cell count stood at 139%. Turning to `O=c1[nH]nc(Sc2ncc([N+](=O)[O-])s2)n1-c1ccc2c(c1)OCCO2` + COc1ccc(-c2ccc3c(N4CCOCC4)nc(N4C[C@@H](C)O[C@@H](C)C4)nc3n2)cc1CO [KU0063794] (first compound 1 µM, partner dose 0.1 µM), the cell count amounted to 87.2%. For the compound `C[C@@H]1CCN(C(=O)CC#N)C[C@@H]1N(C)c1ncnc2[nH]ccc12` + c1cc(-c2cnn3cc(-c4ccc(OCCN5CCCCC5)cc4)cnc23)ccn1 [Dorsomorphin] (first compound 5 µM, partner dose 2 µM), the cell count stood at 92.3%. `O=C(O)c1ccc(-c2c[nH]c3ncc(-c4ccccc4)cc23)cc1C1CCCC1` + CCN(CC)CCCCNc1ncc2cc(-c3cc(OC)cc(OC)c3)c(NC(=O)NC(C)(C)C)nc2n1 [PD173074] (first compound 0.8 µM, partner dose 0.5 µM): the cell count was 102%. Then `CC1(C)NC(=O)N(c2ccc([N+](=O)[O-])c(C(F)(F)F)c2)C1=O` [nilutamide] + O=S(=O)(c1ccccc1)N(CC(F)(F)F)c1ccc(C(O)(C(F)(F)F)C(F)(F)F)cc1 [T0901317] (first compound 5 µM, partner dose 7 µM), with 96.1%; and `O=C(Nc1cccc(Cl)c1)Nc1ncc(CCNc2ncnc3ccsc23)s1` + N#Cc1c(O)c2c(-c3ccc(-c4ccccc4O)cc3)csc2[nH]c1=O [A769662] (first compound 0.004 µM, partner dose 10 µM), with 114%; and `O=C(Nc1cccc(Cl)c1)Nc1ncc(CCNc2ncnc3ccsc23)s1` + COc1ccc(-c2ccc3c(N4CCOCC4)nc(N4C[C@@H](C)O[C@@H](C)C4)nc3n2)cc1CO [KU0063794] (first compound 0.004 µM, partner dose 0.1 µM), with 95.6%. `C[C@@H]1CCN(C(=O)CC#N)C[C@@H]1N(C)c1ncnc2[nH]ccc12` + Cc1cc([N+](=O)[O-])ccc1NS(=O)(=O)c1cc(Cl)ccc1Cl [FH535] (first compound 5 µM, partner dose 5 µM) showed a cell count of 83.5%. For `COc1cc(Nc2ncc(F)c(Nc3ccc4c(n3)NC(=O)C(C)(C)O4)n2)cc(OC)c1OC` [Tamatinib] + COc1cc2ncnc(Nc3ccc(Oc4ccccc4)cc3)c2cc1OC [SrcI1] (first compound 2 µM, partner dose 10 µM), the cell count is 124%. Compound `Cn1cncc1[C@@](N)(c1ccc(Cl)cc1)c1ccc2c(c1)c(-c1cccc(Cl)c1)cc(=O)n2C` [tipifarnib] + Cn1cc(/C=C2\C(=O)Nc3cccnc32)c2ccccc21 [GW441756] (first compound 0.05 µM, partner dose 2 µM) showed a cell count of 131%. `O=C(Nc1cccc(Cl)c1)Nc1ncc(CCNc2ncnc3ccsc23)s1` + COc1ccc(COc2ccc(Cc3cnc(N)nc3N)cc2OC)cc1 [GW2580] (first compound 0.004 µM, partner dose 5 µM) registered a cell count of 77.7%. In the case of `O=C(Nc1cccc(Cl)c1)Nc1ncc(CCNc2ncnc3ccsc23)s1` + Oc1nc(-c2ccc(C(F)(F)F)cc2)nc2c1CSCC2 [XAV939] (first compound 0.004 µM, partner dose 10 µM), the cell count is 87.6%. `C[C@@H]1CCN(C(=O)CC#N)C[C@@H]1N(C)c1ncnc2[nH]ccc12` + CCN(CC)CCCCNc1ncc2cc(-c3cc(OC)cc(OC)c3)c(NC(=O)NC(C)(C)C)nc2n1 [PD173074] (first compound 5 µM, partner dose 0.5 µM) came in with a cell count of 110%. Regarding `O=C(O)c1ccc(-c2c[nH]c3ncc(-c4ccccc4)cc23)cc1C1CCCC1` + O=C1NC(=O)/C(=C/c2ccc(-c3ccc(F)cc3O)o2)S1 [AS252424] (first compound 0.8 µM, partner dose 5 µM), the cell count was determined as 101%. For `C[C@@H]1CCN(C(=O)CC#N)C[C@@H]1N(C)c1ncnc2[nH]ccc12` + COC(=O)c1sccc1S(=O)(=O)Nc1ccc(Nc2ccccc2)cc1OC [GSK0660] (first compound 5 µM, partner dose 5 µM) the value was 110%.
